The source gives no read counts; variants with many changes may rest on few reads.
B1: LINE1-mini (parent)
chain: GGCAGAGCUCAACACAGCGUGGCAAAGUGGCUGUGGCUAGACUGCC

Variants of: B1
Assay: self-cleavage, relative activity (ratio to wild type); higher = more cleavage; in vitro, sequencing; the parent is a self-cleaving ribozyme

| Variant | self-cleavage |
| --- | --- |
| C8G U9G C23U U28C | 0.06 |
| C8G U9G A41G | 0.03 |
| C8U A11U C13A | 0.02 |
| C8U C15G A16G U28A C37G | 0.13 |
| C8U A12G A24U G29C | 0.01 |
| C8G U9G C10A A12C A41U | 0.01 |
| C8U A14C G22C | 0.04 |
| C8U C10U C15G | 0.08 |
| C8G G27C G30A G35U | 0.03 |
| C8U C10A G19C | 0.01 |
| C8U C13G C23A G30U G35A U43G G44A | 0.07 |
| C8G G17A C23U A26U C37A | 0.02 |
| C8U A26G G27U G44C | 0.03 |
| C8G C23G A24C A26G C45A | 0.02 |
| C8U A12C G40C | 0.01 |
| C8G U9C G30U | 0.02 |
| C8U A11U A14G U28A | 0.02 |
| C8U C18A A26G C42U | 0.09 |
| C8U C18A G27A | 0.22 |
| C8U A24G U34A | 0.11 |
| C8U C10A A11G A25C G30U | 0.04 |
| C8G G27A C37U U38A | 0.05 |
| C8G G19A G40U | 0.13 |
| C8U A14C G27A | 0.07 |

| Variant | self-cleavage |
| --- | --- |
| C8G U9C G19A C23G G33U U34G | 0.01 |
| C8U A14U U20G | 0.08 |
| C8U A12C A14C A26C G29C | 0.09 |
| C8G C37A A39C C45G | 0.01 |
| C8U C10U C15A G30A C42G G44A | 0.05 |
| C8U A14G C18A C23U G36A | 0.09 |
| C8U A16G A26U G29U A39C G44A | 0.2 |
| C8U C10G C18A C23U | 0.01 |
| C8G U20G G33U | 0.02 |
| C8U A14G G19A A39G | 0.02 |
| C8U A12U A16G G36A | 0.21 |
| C8U A11U G19U | 0.05 |
| C8U C10A C31U G44C | 0.03 |
| C8U C13U C15A A16G G22U G29A G30A U32C G36C | 0.13 |
| C8G G35C G44A | 0.02 |
| C8U C10A A24G C31U | 0.06 |
| C8U A16G U20G C23A U34A | 0.02 |
| C8U C10A G40C G44A | 0.08 |
| C8U A11C A12C | 0.03 |
| C8U A25C G35C | 0.05 |
| C8U A25U C46G | 0.24 |
| C8U A14C C23A | 0.04 |
| C8U C15A G19C C23A A41C | 0.02 |
| C8G G17C C31A C45A | 0 |

| Variant | self-cleavage |
| --- | --- |
| C8U A25G U43A | 0.5 |
| C8G U32A G33A | 0.01 |
| C8G C18G G27A G29U U38G C42U | 0.01 |
| C8G U9G G40U | 0.07 |
| C8U A11C G30A | 0.03 |
| C8U C10A G27C U28A C37U | 0.01 |
| C8U C15U G22C G35A G40U | 0.03 |
| C8G C23G G29A G44C | 0.06 |
| C8U C15A C45U | 0.08 |
| C8G C18G U38G U43G | 0.02 |
| C8U A26C C46A | 1.28 |
| C8U C15G U20A G33A | 0.06 |
| C8G G21U C23A A39G | 0.02 |
| C8G G22A C31A C45U | 0 |
| C8G C23A G35C | 0.07 |
| C8G U20A C31A | 0 |
| C8U C18A U32G A39U | 0.02 |
| C8G C18U A24C C37A G40U | 0.04 |
| C8G G27A G40C U43G | 0.01 |
| C8U A16G A26U U28C | 0.05 |
| C8G U9G C18U C42A | 0.04 |
| C8G C23A A26G U38C U43C G44A | 0.01 |
| C8G G29U G33A | 0.06 |
| C8U C18G G21U | 0.07 |

| Variant | self-cleavage |
| --- | --- |
| C8U C15G G44U | 0.25 |
| C8G G22A A26U G33A | 0.03 |
| C8U A24U U38G C46U | 0.02 |
| C8G C37A U43C C45U | 0.01 |
| C8U A12C C15U A16U U20C G33C G35A C37A | 0.01 |
| C8U C15U G29A U32G G33C G40A | 0.27 |
| C8G G29C U43A | 0.03 |
| C8U A14U G19C U20A A24G C37U C45A | 0.01 |
| C8G U9G C15U A16U C23G | 0 |
| C8U A26C G27U C31A G44C | 0.04 |
| C8U A14G C15U G22U G33U | 0.29 |
| C8U A25U C31A | 1.64 |
| C8U C15U C23A G27C A39G | 0.02 |
| C8U A14U G44U | 0.03 |
| C8G C18U C31A G33U | 0.01 |
| C8U A11U C13U C31A U43G G44A | 0.03 |
| C8U A16G G35C G36A | 0.14 |
| C8U C15G G21U | 0.14 |
| C8U C13G C18A G21C C23U G27U | 0.04 |
| C8G G22C A24G | 0.04 |
| C8U A25U U32G | 0.36 |
| C8G G21C G35C | 0.04 |
| C8U A12U G27U G29A | 0.04 |
| C8G G19U G21C G40C | 0.01 |

| Variant | self-cleavage |
| --- | --- |
| C8G G29U G40C C46U | 0.12 |
| C8G G19C U43C | 0.03 |
| C8U C18A U20G | 0.15 |
| C8G G17U C18A U38G C45G C46G | 0.01 |
| C8G G19C G29A C31U G35U | 0.06 |
| C8U A11U C31U | 0.02 |
| C8U C13A A16C G17C G21A A26G C37U | 0.15 |
| C8G G22A C31G G35A C45G | 0.04 |
| C8U C13U C37G C46U | 0.26 |
| C8U A25C U28C G36U | 0.11 |
| C8U C10U A11C A16G G40U | 0.01 |
| C8G G30C A39G | 0.02 |
| C8U A16G G17A G36C | 0.07 |
| C8G U9C G33A | 0.01 |
| C8U A11G U32G G33C C46U | 0.04 |
| C8G G21C G27U U38C | 0.06 |
| C8U C10U C46G | 0.02 |
| C8U A14U U38A | 0.22 |
| C8G G27A C31U | 0.09 |
| C8U A41C G44A | 0.1 |
| C8G U9A G33U | 0.09 |
| C8G U9A G19A | 0.06 |
| C8U A14C G30C C37A C42U U43G | 0 |
| C8G G27U C46U | 0.08 |

| Variant | self-cleavage |
| --- | --- |
| C8U A16C G36A | 0.25 |
| C8U C18A A26G G33C C45A | 0.01 |
| C8G G19U G29U | 0.03 |
| C8U C15U G17A G33A | 1.46 |
| C8U A14G U20C U43A G44C | 0.03 |
| C8G C23U A24U C37G | 0.06 |
| C8U A12C A25C G29U | 0.04 |
| C8U C18G G22C G29U | 0.08 |
| C8U A11G C13A C23A A24G U28C C31U | 0.02 |
| C8U A11C A39C | 0.02 |
| C8G G19U G21U G27A | 0.08 |
| C8U A16G G22A U28A | 0.07 |
| C8U A16U A24U C37A | 0.01 |
| C8G G19U G21C | 0.08 |
| C8U A11U A26U U34A G36U | 0.03 |
| C8G C31G U34G U38C | 0.02 |
| C8U C15A G30A C42A C45A | 0.19 |
| C8G G17C A24U | 0.02 |
| C8U C10G U20A U38C | 0.01 |
| C8G C18A G22C | 0.04 |
| C8U C18A A41U | 0.15 |
| C8U C10A U20A C23A | 0.05 |
| C8G G30C C37U C45A C46A | 0 |
| C8G G22U U34C | 0.62 |

| Variant | self-cleavage |
| --- | --- |
| C8U A26G G27U U28G C31U U34A | 0.04 |
| C8G G17C G29C | 0.36 |
| C8G G33C C37A G40C | 0.04 |
| C8G G22A G36U A41G | 0.07 |
| C8U C10U A12G A24U G35U U43A | 0 |
| C8G U32C U43C | 0.23 |
| C8G U28G C31U | 0.05 |
| C8G C18U U43G C46U | 0.13 |
| C8U A14U C18A U34A G36A U38C | 0.04 |
| C8U A12U G17U A41G C45A | 0.02 |
| C8G G17A C18G G27C G36C U43G C45A | 0.04 |
| C8G U28C C42U | 0.01 |
| C8U C15G G22C C37G U38C | 0.03 |
| C8U C10U G30A | 0.07 |
| C8G G17A G30A C45U | 0.06 |
| C8U C10G G35U | 0.02 |
| C8G U9C G36A | 0.05 |
| C8G C18A G21C G44U | 0.03 |
| C8U C10G C42A | 0.01 |
| C8U C10G C13G | 0 |
| C8U C10A C13U A26G A41U | 0.01 |
| C8U C10G A12C | 0 |
| C8G G27C G29U G44A | 0.02 |

Reference: the RNAGym collection of RNA variant scans (doi:10.7554/elife.90254)
